Laboratory results reported in the supplement of paper PMC4166925.
± gives the standard deviation of the averaged measurements. Whole data set: some 33,000 sequences, median “E-score (dimensionless, -0.5 to 0.5)” near -0.046, cut for the highest 2% near 0.36. This is one part of the list.

The sequences below were run on T1, SpTbr T-box DNA-binding domain (GST fusion) (assay: PBM E-score of 8-mer (E-score (dimensionless, -0.5 to 0.5)); Tbr is Tbrain of the sea star Patiria miniata (Pm) or the sea urchin Strongylocentrotus purpuratus (Sp); higher = stronger binding preference; most listed sequences are background and not binding sites). Conditions: the construct has about 5 more residues each side.
T1 sequence: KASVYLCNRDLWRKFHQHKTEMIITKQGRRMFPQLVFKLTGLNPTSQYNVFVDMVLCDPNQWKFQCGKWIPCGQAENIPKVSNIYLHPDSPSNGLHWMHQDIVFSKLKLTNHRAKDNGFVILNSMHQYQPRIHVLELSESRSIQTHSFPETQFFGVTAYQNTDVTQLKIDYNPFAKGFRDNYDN
Outline: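 Expression of GST-fused Tbr T-box DNA-binding domains, each holding the full T-box plus roughly five flanking residues, was carried out in BL21 E. coli at 20 °C, with purification by glutathione affinity chromatography. Universal Agilent arrays made double-stranded by primer extension were incubated with the protein at 200 nM in PBS (pH 7.5), then scanned and quantified. All ungapped 8-mers were scored from probe intensities, and each received an enrichment E-score from the Universal PBM Analysis Suite, averaged over duplicate arrays.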

Sequence	PBM E-score of 8-mer
GTGGTTGA	-0.193 ± 0.0035
AGATGGAA	-0.105 ± 0.024
AATTTAGT	-0.0176 ± 0.054
TGCGGCCA	-0.102 ± 0.054
CCAAATGG	-0.0512 ± 0.02
AAGGCGTA	0.153 ± 0.028
CGGTTCGC	0.333 ± 0.02
AGGCTCAG	-0.259 ± 0.064
CCTAGGTA	0.0144 ± 0.004
GGCGGAAA	-0.0237 ± 0.0049
ATACCCCC	-0.205 ± 0.028
CGGGAAAC	0.1171 ± 0.00015
ACTCTGAG	-0.0935 ± 0.02
CGGTCGTC	0.0242 ± 0.042
ACCATGGT	0.14 ± 0.00095
CCCCTTTA	-0.284 ± 0.049
CCCCCACC	-0.0478 ± 0.029
ATACTCTC	-0.141 ± 0.041
CACGGGAA	0.0226 ± 0.0042
GAGAACCA	0.0017 ± 0.11
CCCAGACG	-0.0648 ± 0.012
AGGGCACT	-0.141 ± 0.08
ATCTCTTG	0.011 ± 0.0073
CTCCCATA	-0.161 ± 0.043
GCTACGCC	0.0298 ± 0.029

Sequence	PBM E-score of 8-mer
GAGGGAAA	-0.127 ± 0.035
ATTGCAGA	-0.0149 ± 0.092
CCGTAACC	0.0545 ± 0.016
CACCCTGG	0.196 ± 0.051
ACAGCCAC	0.0867 ± 0.049
CCTCATGC	-0.0225 ± 0.055
AAATTCAT	-0.208 ± 0.072
ATCGTCCG	-0.135 ± 0.014
ACTTCATG	-0.0152 ± 0.015
CACCCGTA	0.154 ± 0.075
AGAGGAGC	-0.0105 ± 0.083
CCGCGAAC	0.338 ± 0.0083
AACAGTTA	0.255 ± 0.015
ACGCGCCG	0.227 ± 0.11
AATCCATG	-0.23 ± 0.041
CGTTTTAG	-0.0242 ± 0.011
GGACCACA	-0.0704 ± 0.071
GCTCAGGA	-0.213 ± 0.031
AAAGTGTT	0.416 ± 0.035
ACGAAGTA	-0.0771 ± 0.0073
ACTCGGGG	-0.246 ± 0.072
GGACTGTA	-0.226 ± 0.0032
CGGCAAAC	0.0128 ± 0.0013
ACATCGCT	0.101 ± 0.02
AGGTTCCA	-0.0895 ± 0.035

Sequence	PBM E-score of 8-mer
AATGCGGT	-0.158 ± 0.016
CCTCCAGA	-0.13 ± 0.058
AGGCAGAT	-0.0669 ± 0.075
GGAGTCCA	-0.136 ± 0.014
TAATTAAA	-0.128 ± 0.06
ATCATTGG	0.0423 ± 0.055
CATCCCTC	-0.127 ± 0.048
TAAATGCA	-0.238 ± 0.0051
AAGAGAAG	0.0157 ± 0.045
AGCGTTGC	-0.00298 ± 0.059
AGTCAGAG	-0.377 ± 0.027
TAATCGCA	0.238 ± 0.044
CAACGGCG	0.0935 ± 0.02
AGTGTTGC	0.346 ± 0.0099
ACTCCGCC	-0.12 ± 0.0042
ACTCACCC	0.184 ± 0.048
TAGAACGA	-0.154 ± 0.0016
AATATGTA	-0.00826 ± 0.042
AGGTTCGC	0.275 ± 0.014
ACGACAGG	0.0347 ± 0.08
TGAACGAA	-0.176 ± 0.038
CAAGTGAA	0.0357 ± 0.021
ATACACCC	0.0215 ± 0.038
TCGGTGAA	-0.0804 ± 0.055
AAGCTTAC	-0.128 ± 0.056

Sequence	PBM E-score of 8-mer
TAACATGA	0.0612 ± 0.07
AAAACCTC	-0.21 ± 0.0076
CGCCCTGC	0.0269 ± 0.028
GAGGGAGA	-0.0059 ± 0.0082
ATTAAGCA	-0.251 ± 0.014
CAGTGCTC	0.0319 ± 0.0026
CGAGGTTA	0.0218 ± 0.011
CCTTTTTA	-0.0557 ± 0.078
TGAGGCCA	-0.213 ± 0.046
ACTGTGCA	-0.0113 ± 0.0028
AGCCTACG	-0.0647 ± 0.015
CATTGGAC	-0.0809 ± 0.041
CGTAAATC	0.0659 ± 0.057
AAGCGTAC	-0.16 ± 0.065
ATAGGATG	0.012 ± 0.026
AATCTATA	-0.209 ± 0.0095
CGGGGTGA	0.231 ± 0.024
AGCGAGGC	0.112 ± 0.037
CACGTACA	0.268 ± 0.022
AGTCCGCC	-0.104 ± 0.074
ATAGTAAG	-0.227 ± 0.022
GCGAGTTA	0.101 ± 0.045
CAGCTTCG	0.189 ± 0.0024
GACTTCGA	0.0525 ± 0.043
CGCAACCG	0.191 ± 0.065

Sequence	PBM E-score of 8-mer
GATTTAGA	-0.218 ± 0.035
AAATGAAG	-0.126 ± 0.012
AACGCGCA	-0.0531 ± 0.065
ACTGCTGA	0.178 ± 0.011
ACAAACCA	-0.162 ± 0.037
ATACCCTG	-0.119 ± 0.008
AGAATAAG	0.00056 ± 0.059
CCTGTAGA	-0.145 ± 0.0029
GCCATCTA	-0.101 ± 0.012
AGATCAAA	-0.158 ± 0.035
CTAAGCCA	-0.131 ± 0.046
CTGAGTAA	-0.162 ± 0.021
ATAATAAC	0.128 ± 0.035
ACTCCACG	0.207 ± 0.0069
AGTCCCAG	-0.163 ± 0.059
AAAAAATT	-0.228 ± 0.12
CCGTTAAC	0.228 ± 0.007
GGGCCGCA	-0.13 ± 0.0072
AGTTGGAC	-0.178 ± 0.04
CTCCTTGA	-0.166 ± 0.03
ACCAAGCT	-0.00647 ± 0.016
CATGTTGG	-0.162 ± 0.0039
GGCAATCA	-0.11 ± 0.02
CACCAGGG	0.0496 ± 0.1
ACGAGTAT	-0.0491 ± 0.014

Sequence	PBM E-score of 8-mer
GCGGAGGA	-0.108 ± 0.04
AAACGGAA	-0.072 ± 0.08
ACGCGTGG	0.203 ± 0.021
CCAGACGC	-0.0704 ± 0.012
CAACTAAC	0.132 ± 0.016
CCTATGGA	-0.195 ± 0.0078
CCTGGTGC	0.231 ± 0.035
AACCTAAC	-0.0237 ± 0.04
AAGGTGGG	0.242 ± 0.042
TGCCCAAA	-0.135 ± 0.019
CCAGATAA	0.0671 ± 0.096
GGCATTTA	-0.0361 ± 0.0046
ATGTGTAC	-0.00571 ± 0.026
AGCACTAC	-0.0189 ± 0.027
ATGAGCTG	0.0357 ± 0.018
ACCCTGCG	0.153 ± 0.0069
AAGTGCCT	-0.0646 ± 0.037
CAACCGGC	-0.166 ± 0.0048
ATTAGCTA	0.0659 ± 0.026
ATTCGCCC	-0.116 ± 0.045
ATAGCGCC	0.212 ± 0.02
CAAGCAGA	-0.205 ± 0.028
CCGTGACA	0.241 ± 0.028
AGGCTTTG	-0.219 ± 0.016
CGGGTGGC	0.153 ± 0.045

Sequence	PBM E-score of 8-mer
GATCTGTA	-0.081 ± 0.025
GTATCTGA	-0.0397 ± 0.012
AGGTCATG	-0.129 ± 0.0072
AGGTCAGA	-0.191 ± 0.058
ATGCTCGG	-0.0579 ± 0.0043
TTAGTCAA	-0.129 ± 0.018
CTCCCGGC	-0.0668 ± 0.032
AAACGTCT	-0.218 ± 0.09
CGTTGTCA	0.294 ± 0.014
AAGTGGAT	-0.102 ± 0.058
CCGAGGCC	-0.143 ± 0.041
CAACTGTC	0.23 ± 0.0054
ATACTTCC	-0.0311 ± 0.024
GACTGGGC	-0.219 ± 0.021
GAATACTC	-0.0382 ± 0.037
ACGTGGGG	-0.127 ± 0.012
ATACGAGA	-0.127 ± 0.0036
CGATCTGC	0.000155 ± 0.049
GCGAGGTA	0.0707 ± 0.033
GTCGATGA	0.213 ± 0.0032
AGTCAGCA	-0.0176 ± 0.0093
ACAGGGGA	-0.104 ± 0.046
